Measurements taken from the supplement of paper PMC4604168 (melanoma cell lines).
The list shows a part of the results. Repeats are few or missing, and single values can be far off.

The compounds below were run on WM3526 (assay: cell count relative to DMSO control; melanoma cells; higher = more viable cells). Settings: library dose: low library concentration; 72 h.
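Note: cell number obtained by counting DAPI-stained nuclei in high-throughput microscope images with image analysis software, screen run in 1,536-well plates.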

Compound	cell count [%]
Nc1ncn([C@H]2C[C@H](O)[C@@H](CO)O2)c(=O)n1 [decitabine] + CO[C@@H]1[C@H](N(C)C(=O)c2ccccc2)C[C@H]2O[C@]1(C)n1c3ccccc3c3c4c(c5c6ccccc6n2c5c31)C(=O)NC4 [Midostaurin] (first compound 0.1 µM, partner dose 0.08 µM)	100
CO[C@H]1C[C@@H]2CC[C@@H](C)[C@@](O)(O2)C(=O)C(=O)N2CCCC[C@H]2C(=O)O[C@H]([C@H](C)C[C@@H]2CC[C@@H](OCCO)[C@H](OC)C2)CC(=O)[C@H](C)/C=C(\C)[C@@H](O)[C@@H](OC)C(=O)[C@H](C)C[C@H](C)/C=C/C=C/C=C/1C [everolimus] + COc1ccc(Cl)c(Nc2nc3ccccc3nc2NS(=O)(=O)c2cccc(NC(=O)C(C)(C)N)c2)c1 [XL147] (first compound 0.02 µM, partner dose 0.8 µM)	55.3
Nc1ncn([C@H]2C[C@H](O)[C@@H](CO)O2)c(=O)n1 [decitabine] + Cc1ccc(NC(=O)c2cccc(N(C)C)c2)cc1NC(=O)c1ccc(O)cc1 [ZM336372] (first compound 0.1 µM, partner dose 2 µM)	95.6
CC(=O)c1c(C)c2cnc(Nc3ccc(N4CCNCC4)cn3)nc2n(C2CCCC2)c1=O [palbociclib] + O=C(CCCCCCC(=O)Nc1ccccc1)NO [vorinostat] (first compound 0.04 µM, partner dose 0.08 µM)	53.9
CC(=O)c1c(C)c2cnc(Nc3ccc(N4CCNCC4)cn3)nc2n(C2CCCC2)c1=O [palbociclib] + O=C(O)c1ccc(-c2c[nH]c3ncc(-c4ccccc4)cc23)cc1C1CCCC1 [GSK650394] (first compound 0.04 µM, partner dose 0.16 µM)	74.8
Nc1ncn([C@H]2C[C@H](O)[C@@H](CO)O2)c(=O)n1 [decitabine] + CN(C)S(=O)(=O)c1ccc2c(c1)/C(=C/c1cc3c([nH]1)CCCC3)C(=O)N2 [SU6656] (first compound 0.1 µM, partner dose 0.4 µM)	80.6
Nc1nc(F)nc2c1ncn2[C@@H]1O[C@H](CO)[C@@H](O)[C@@H]1O [fludarabine] + N#Cc1c(O)c2c(-c3ccc(-c4ccccc4O)cc3)csc2[nH]c1=O [A769662] (first compound 0.2 µM, partner dose 2 µM)	22.7
CC(=O)c1c(C)c2cnc(Nc3ccc(N4CCNCC4)cn3)nc2n(C2CCCC2)c1=O [palbociclib] + COc1ccc2c(c1)CCC1C2CCC2(C)C(NCCCCCCN3C(=O)C=CC3=O)CCC12 [U73122] (first compound 0.04 µM, partner dose 0.4 µM)	61.6
Nc1ccn([C@@H]2O[C@H](CO)[C@@H](O)C2(F)F)c(=O)n1 [gemcitabine] + C#Cc1cccc(Nc2ncnc3cc(OCCOC)c(OCCOC)cc23)c1 [erlotinib] (first compound 0.0004 µM, partner dose 0.8 µM)	115
Nc1nc(F)nc2c1ncn2[C@@H]1O[C@H](CO)[C@@H](O)[C@@H]1O [fludarabine] + COc1ccc(COc2ccc(Cc3cnc(N)nc3N)cc2OC)cc1 [GW2580] (first compound 0.2 µM, partner dose 1 µM)	36.9
